The other results are listed elsewhere or left out.
Test system: PF3D7_0420300 AP2 domain 1 (GST-tagged)
Assay: gcPBM binding intensity (ln(normalized median fluorescence intensity)); higher = stronger DNA binding
Summary of the method: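 GST-tagged P. falciparum DNA-binding domains, expressed in E. coli (about 25 μg on average), were applied for 1 h to an Agilent 4 × 180k array of primer-extended double-stranded 36-bp intergenic genomic probes plus negative controls. The binding buffer was 1× PBS with 1% milk, 0.2 mg/ml BSA, 0.5% salmon testes DNA and 0.03% Triton X-100. Bound protein was detected with Alexa488 anti-GST antibody and scanned at 488 nm. Binding intensity is the highest Masliner-normalised natural-log median intensity across replicate spots of either probe orientation.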

Row | Sequence | gcPBM binding intensity (ln)
1 | TATAAGATTATACAAAGTACATATAAATAATATATT [XGTACX_site1917] | 9.23
2 | ATATATATATAAATATGTACATATATATATTATATA [XGTACX_site120] | 9.24
3 | TCCTCTTTTATTTTTACACACGCGTAAACATATATA [CACACA_site667] | 9.64
4 | TTAAAAAAAGATTATACACACACATATATAAACATA [CACACA_site8136] | 9.93
5 | TGAAATAAAAAATATAGTACTCGTTCGTAACCAAAA [XGTACX_site413] | 9.26
6 | ATGGGTTAAAAATGCACACAAAAAAATATACAGATA [CACACA_site4321] | 9.75
7 | TATATTAAATAAAAAGTGCATGTCTCATAAGATGGA [GTGCAC_site9520] | 9.19
8 | ATAGGGAATTTATGCACACAGTTAAGGGGGAAAATT [CACACA_site5183] | 9.66
9 | ATAAAATGTTAAGGGTGTACTTTACACATCTCCTAT [XGTACX_site4699] | 9.21
10 | TATAAATAAAGCAGTACACACATTTATTTTAGATAC [CACACA_site7566] | 9.61
11 | TTTATACTATAATTATGTACTTATAAAAGGAATAAA [XGTACX_site8027] | 8.97
12 | ATGTAAATACATATATGTACACAAATATATATATAT [XGTACX_site3537] | 9.36
13 | ATAAACACATCTATATGTACATATATATATATATAC [XGTACX_site347] | 9.41
14 | TATATAAATATACATTGTACTCAACATTTTCATTAA [XGTACX_site3690] | 9.21
15 | TGGGTGTAGAACAATTGTACTTTGTAAAAATATAAG [XGTACX_site8464] | 9.1
16 | TTTTTTTTCAATGGTTGTACAAAGTAAAACAACAAA [XGTACX_site1582] | 8.84
17 | TTATATATATTTAAAAAAATAACATAAATAAATAAA [CACACA_negctrl_site347] | 8.96
18 | GTAAATATAAACTCAGCACACAAACATATATATGTC [CACACA_site9326] | 9.67
19 | TTAAATAAAAGGTTTAGTACTTAAAATAAGAAATGA [XGTACX_site6341] | 9.14

Row | Sequence | gcPBM binding intensity (ln)
20 | TTTTATTTATCTTAATGTACACATTTATATATATAT [XGTACX_site8588] | 9.41
21 | TATAATAATTAAAAGTGTACTAAATTTTTACATATA [XGTACX_site2523] | 9.12
22 | CACTTTTTTTTTTACTGTACATATACAAATTAAAAA [XGTACX_site1565] | 9.14
23 | TTGTAATTTATTCAAACACACAATTTGGACCTTTTT [CACACA_site1063] | 9.19
24 | TATTCATAATTTTAATGTACAAAATGGTTTGTAATA [XGTACX_site8493] | 8.95
25 | AAAGATAAATTAAAAAGTACATATTTATTCAATGTA [XGTACX_site8543] | 9.16
26 | AATATATATATATTATCACACACTCACGTTTGACAA [CACACA_site8130] | 9.46
27 | TATGATATATATAATACACACATATACATAAGATCT [CACACA_site1119] | 9.62
28 | ATTATATCATATATATGTACACATATATAACATGAT [XGTACX_site7] | 9.25
29 | TAAAAAAAACGAACAAGTACACATAAAAAAAAATTA [XGTACX_site5982] | 9.58
30 | ATCCATCTTTTAATTTGTACTTATTCTTTTTTCTTT [XGTACX_site5299] | 9.68
31 | ATATATATATGTAATAGTACATATGATAGTTTGTCA [XGTACX_site1545] | 9.3
32 | ATTAGTTTTATATATAGTACATATAATTTTGAAGGT [XGTACX_site7445] | 9.2
33 | AATTTAATATAATGCACACATAAAAAAAAATTCAAA [CACACA_site2062] | 9.22
34 | ATGAAAACCATGACGGGTACTCATTTATTATTTTAT [XGTACX_site6724] | 9.43
35 | ATTTATTTGTTTATTTGTTTATTTGTTTATTTGTTT [CACACA_negctrl_site1386] | 9.82
36 | TTAAGAATCTATACTAGTACATATATGTATACAAGC [XGTACX_site8025] | 9.29
37 | TGTAGAACAAAAAATTGTACATATTTGTAAAAAAAA [XGTACX_site3850] | 9.09
38 | ATTGTGTTAATAAAATGTACATTTTCTCTACTTTAA [XGTACX_site1199] | 9.42

Row | Sequence | gcPBM binding intensity (ln)
39 | TATATATATATGTGTAGTACAACAAATATGAAAAAT [XGTACX_site4059] | 9.54
40 | ACAATATATAAAATATGTACATAATATATATAATGA [XGTACX_site8731] | 9.33
41 | CCTAATTTTATTAGGGTGCATTTTTAGTTAAATATA | 9.01
42 | ATCCACAAATTAACAAGTACATATATATATATATAT [XGTACX_site1267] | 9.02
43 | TAAGTTATATGTACTACACACGTACACAAAATAAGA [CACACA_site9237] | 9.55
44 | TGATGAAAATTTTTCTGTACAAAAAGTATGAAGGTA [XGTACX_site8901] | 9.06
45 | TTATAATTCTATTATCTGTTCTTTTTATATTTTTTT [CACACA_negctrl_site855] | 9.43
46 | TTCTAAACACATTGACAAATTAATATATTACAGCAA [GTGCAC_negctrl_site121] | 9.18
47 | TTATTTTTCAATGAAAAGGATTATATATATATATAT [CACACA_negctrl_site757] | 8.97
48 | AAAATTTATAGTATGGTGCATAAAAATATATATATA | 9.29
49 | TATAAGAAAAATAACACACACATAAACATAAATACA [CACACA_site5536] | 9.87
50 | AAAAAAAAAAAAAAATGTACATAAAAATGATATAAT [XGTACX_site4096] | 9.41
51 | GTATATATATATAAAAGTACATGTTATGAAAAAAAA [XGTACX_site5410] | 9.41
52 | TATATATAGAAACACACACACATATATATATATATA [CACACA_site773] | 9.74
53 | TTTTTTCTCAAAAAAAAAACCTATGGTTATTAAGAT [XGTACX_negctrl_site534] | 8.7
54 | ATTAAGTATATTTCTGCACACAAAAAAAAAAACCAA [CACACA_site9342] | 9.67
55 | ATTATATATATCAGGTGTACGTAAAAAAAATGGACG [XGTACX_site1028] | 9.78
56 | TTTTTTTATTAATGTAGTACAATATAATGTTATATT [XGTACX_site2295] | 9.12
57 | GAGGTCTTTTTTAATGTGCACATATATATATATATA | 9.53
